Assay results as given in the supplement of paper PMC7826260.
The other results are listed elsewhere or left out. Cleavage of a single-stranded DNA pool by Rep nickase domains was read by sequencing for 1 h at 37 °C with 3 µM enzyme; only the middle of the 90-letter strands is printed. A value is the log2 ratio of uncut reads to the pool without enzyme; the lower, the more was cut; hits are not called. Reads are scaled to the total, so uncut sequences can rise above 0 when many others are cut.

Tests used:
Assay in all cases: uncleaved DNA left, log2 of reads against the no-enzyme library (log2 ratio); higher = less cleavage (more negative = more Rep cleavage of the k-mer); sequences stand for … in CTCGTCCG…ACCGGAGA
[1] = system: T1, Rep nickase domain of Muscovy duck circovirus
T1 sequence (residues 1-111, tag not shown): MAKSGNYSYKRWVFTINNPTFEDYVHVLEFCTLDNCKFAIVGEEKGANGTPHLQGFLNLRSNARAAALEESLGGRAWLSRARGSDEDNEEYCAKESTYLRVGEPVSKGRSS
Protocol: (§1)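 A pool of 90-nt single-stranded DNAs with seven random bases just before the constant AC of the nick site (name = the seven bases) was cut by 3 µM recombinant His6-SUMO-tagged Rep nickase domain (300 nM DNA, 50 mM HEPES pH 8.0, 50 mM NaCl, 1 mM MnCl2, 1 h, 37 °C, three replicates). Uncut DNA was amplified and sequenced.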

[2] = system: T2, Rep nickase domain of banana bunchy top virus
T2 sequence (residues 1-94, tag not shown): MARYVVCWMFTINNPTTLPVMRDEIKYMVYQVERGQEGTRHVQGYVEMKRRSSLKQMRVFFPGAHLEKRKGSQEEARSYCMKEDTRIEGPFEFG
Protocol: as §1

[3] = system: T3, Rep nickase domain of cabbage leaf curl virus
T3 sequence (residues 1-116, tag not shown): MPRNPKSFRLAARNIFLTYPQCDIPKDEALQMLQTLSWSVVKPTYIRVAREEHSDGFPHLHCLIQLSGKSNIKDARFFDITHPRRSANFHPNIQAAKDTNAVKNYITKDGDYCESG
Protocol: as §1

[4] = system: T4, Rep nickase domain of chickpea chlorotic dwarf virus
T4 sequence (residues 1-124, tag not shown): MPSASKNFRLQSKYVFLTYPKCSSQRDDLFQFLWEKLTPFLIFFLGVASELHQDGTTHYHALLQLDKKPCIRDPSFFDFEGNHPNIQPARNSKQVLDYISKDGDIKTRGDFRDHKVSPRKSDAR
Protocol: as §1

[5] = system: T5, Rep nickase domain of faba bean necrotic yellows virus
T5 sequence (residues 1-98, tag not shown): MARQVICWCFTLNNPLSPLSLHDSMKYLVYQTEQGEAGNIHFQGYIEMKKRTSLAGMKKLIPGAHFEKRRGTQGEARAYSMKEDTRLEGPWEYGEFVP
Protocol: as §1

[6] = system: T6, Rep nickase domain of maize striate mosaic virus
T6 sequence (residues 1-117, tag not shown): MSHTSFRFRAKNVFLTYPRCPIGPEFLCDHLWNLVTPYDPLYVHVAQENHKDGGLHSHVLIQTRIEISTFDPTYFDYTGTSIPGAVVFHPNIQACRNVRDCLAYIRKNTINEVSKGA
Protocol: as §1

[7] = system: T7, Rep nickase domain of porcine circovirus 2
T7 sequence (residues 2-116, tag not shown): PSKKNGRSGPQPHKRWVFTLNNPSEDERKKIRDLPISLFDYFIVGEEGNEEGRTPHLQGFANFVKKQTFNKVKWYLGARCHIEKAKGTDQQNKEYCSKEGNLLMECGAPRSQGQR
Protocol: as §1

[8] = system: T8, Rep nickase domain of tomato golden mosaic virus
T8 sequence (residues 1-124, tag not shown): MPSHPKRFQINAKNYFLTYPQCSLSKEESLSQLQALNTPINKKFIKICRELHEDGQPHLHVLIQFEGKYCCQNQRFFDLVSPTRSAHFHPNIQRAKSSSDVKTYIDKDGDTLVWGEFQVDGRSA
Protocol: as §1

[9] = system: T9, Rep nickase domain of tomato yellow leaf curl virus
T9 sequence (residues 1-136, tag not shown): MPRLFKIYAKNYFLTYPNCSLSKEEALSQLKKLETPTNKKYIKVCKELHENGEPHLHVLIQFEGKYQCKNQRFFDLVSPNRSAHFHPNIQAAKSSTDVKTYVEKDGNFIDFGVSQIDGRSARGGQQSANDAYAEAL
Protocol: as §1

[10] = system: T10, Rep nickase domain of wheat dwarf virus
T10 sequence (residues 1-137, tag not shown): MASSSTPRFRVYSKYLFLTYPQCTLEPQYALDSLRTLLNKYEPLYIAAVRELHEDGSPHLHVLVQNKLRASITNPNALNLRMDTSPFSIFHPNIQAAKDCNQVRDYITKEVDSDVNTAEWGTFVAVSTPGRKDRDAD
Protocol: as §1

Sequence	uncleaved DNA left (log2) [1]	uncleaved DNA left (log2) [2]	uncleaved DNA left (log2) [3]	uncleaved DNA left (log2) [4]	uncleaved DNA left (log2) [5]	uncleaved DNA left (log2) [6]	uncleaved DNA left (log2) [7]	uncleaved DNA left (log2) [8]	uncleaved DNA left (log2) [9]	uncleaved DNA left (log2) [10]
AAGTTAG	0.0688	0.0654	-0.707	-0.604	0.112	-1.22	-0.0384	-0.0501	0.0934	-0.119
ACAAAAG	0.106	0.093	-0.686	0.296	0.172	-0.683	0.284	0.0785	0.156	0.0749
ATGCGAG	-0.107	0.00531	-0.377	-0.184	-0.0152	-0.879	0.0461	0.026	-0.129	-0.148
GGAAAGG	0.0589	-0.00298	0.489	1.34	-0.0552	1.29	0.0897	-0.0228	-0.119	0.117
CAACCAA	-0.296	-0.0903	-0.322	-1.84	-0.0729	-0.769	-0.92	-0.139	-0.205	-0.113
AGCGCAT	0.108	0.196	0.163	0.569	-0.0381	1.34	0.0941	0.222	0.0804	0.122
GCTACAG	0.01	0.19	-0.249	-0.875	0.0601	-0.653	0.207	0.106	0.203	0.134
ACCAGAG	0.126	0.0101	-0.526	0.575	0.136	-0.264	0.278	0.0489	0.196	0.0261
CCTTTAA	0.014	-0.0199	-0.236	-0.723	-0.0832	-0.755	-0.0601	0.0456	-0.0349	-0.012
CGGGACA	-0.0953	-0.0297	0.769	1.99	-0.196	2.23	0.107	0.0211	-0.051	0.0793
CAGGGTT	0.198	0.114	0.301	1.08	0.176	1.66	-0.446	0.232	0.00936	0.0507
AAAAGAT	0.0653	-0.0268	0.073	1.13	-0.105	1.64	0.197	0.108	-0.138	0.00451
GTTCTGT	-0.0935	-0.0621	0.169	0.664	-0.152	1.47	0.00565	-0.002	0.0227	-0.0194
CGTTTAT	-0.286	-0.0726	0.187	-0.243	0.035	-0.18	-0.564	0.0916	-0.0155	0.036
CCTCACG	-0.0821	0.0321	-0.806	-0.188	0.0151	-1	-0.0324	-0.184	-0.0712	-0.186
TAAAAAT	-0.0449	0.0582	-3.61	-3.38	0.00268	-2.12	-1.49	-2.76	0.02	-3.47
TAATGGA	0.0434	0.0808	-1.9	-1.83	0.0777	-0.534	-0.203	-0.0916	0.0544	-0.217
TCACCCA	-0.0934	0.0589	0.0559	-1.21	-0.016	-0.392	-0.749	-0.133	-0.048	-0.0629
CAGGACA	-0.0358	0.0705	0.508	1.04	0.149	1.35	0.237	0.234	0.00279	0.152
TTTAAGG	0.124	0.0922	0.564	1.52	0.036	1.94	0.12	0.176	-0.112	0.117

Sequence	uncleaved DNA left (log2) [1]	uncleaved DNA left (log2) [2]	uncleaved DNA left (log2) [3]	uncleaved DNA left (log2) [4]	uncleaved DNA left (log2) [5]	uncleaved DNA left (log2) [6]	uncleaved DNA left (log2) [7]	uncleaved DNA left (log2) [8]	uncleaved DNA left (log2) [9]	uncleaved DNA left (log2) [10]
CCCTCCG	-0.0263	0.000382	-0.792	-0.0459	-0.126	-0.837	-0.0174	-0.0275	-0.101	-0.157
AAGTTCG	0.0107	0.0216	-0.667	-0.291	0.00201	-1.19	0.042	0.0746	0.0608	-0.105
CCAGATA	-0.119	-0.0668	-0.176	-1.1	-0.0774	-0.466	-0.123	-0.0373	-0.204	-0.206
ATAACAA	0.0102	0.0757	-0.515	-1.1	-0.0468	-0.627	0.0378	0.0348	-0.0218	0.0804
GAATGGG	0.0147	0.0128	-0.421	-0.253	0.0283	-0.714	0.158	0.065	-0.0587	0.00118
AGCCTCC	0.0887	0.00943	0.349	0.622	0.0193	1.02	-0.141	-0.054	-0.0631	0.0654
CTCCTCA	0.00507	0.065	-0.039	-0.856	0.0163	-0.456	-0.0764	-0.013	0.00885	0.033
TGAGCTC	-0.102	-0.00771	0.118	0.284	0.0187	0.686	0.0416	0.0257	0.0167	-0.0853
GTGCTCT	0.0448	-0.0144	0.307	0.666	-0.055	1.61	0.0217	-0.00825	-0.0618	-0.0168
AGGCATC	0.154	0.13	0.588	1.29	-0.0398	1.3	0.167	0.0199	0.0674	0.248
CTGGTCG	-0.0834	-0.128	-0.898	-0.359	-0.082	-1.01	0.0212	-0.173	-0.119	-0.212
CGCGTAA	0.0217	0.0857	-0.233	-0.394	-0.0556	-0.759	0.0778	0.0728	0.0972	-0.00124
GAGGTGC	-0.0948	-0.094	-0.0886	0.0103	-0.111	-0.34	0.0167	-0.127	-0.0865	-0.153
GGACCAA	0.000373	0.123	0.797	1.68	0.077	2.12	0.169	0.0103	0.108	0.177
CACTTGT	-0.638	-1.06	-0.437	-1.23	0.0614	-0.87	-3.55	-0.177	-0.0586	-0.0956
ATACGGC	0.0392	-0.104	-0.193	-0.331	-0.0464	-0.904	-0.0671	-0.11	-0.0656	-0.0409
AAGACGT	0.044	-0.0117	0.166	0.619	-0.0208	0.577	-0.887	-0.056	-0.0644	0.0327
GCCAGGG	0.0354	0.0181	0.00788	0.248	-0.0628	-0.265	0.185	0.0251	-0.0682	0.0606
CAAACGC	-0.204	-0.096	-0.478	-0.767	-0.17	-1.1	0.0485	-0.206	-0.194	-0.14
ACGAGAC	0.0381	-0.0352	0.374	0.852	0.00698	0.0405	0.228	0.169	-0.0009	0.0711

Sequence	uncleaved DNA left (log2) [1]	uncleaved DNA left (log2) [2]	uncleaved DNA left (log2) [3]	uncleaved DNA left (log2) [4]	uncleaved DNA left (log2) [5]	uncleaved DNA left (log2) [6]	uncleaved DNA left (log2) [7]	uncleaved DNA left (log2) [8]	uncleaved DNA left (log2) [9]	uncleaved DNA left (log2) [10]
GTCATTG	-0.0469	0.0862	0.239	0.732	-0.0232	1.35	0.0838	0.105	0.0152	0.0401
GTCGAGC	0.125	0.116	0.504	0.999	0.129	1.2	0.255	0.167	0.205	0.193
ACGGGAT	0.0204	-0.0225	0.271	1.5	-0.0761	1.89	0.313	0.2	-0.163	-0.092
CGACGAC	0.132	-0.0266	0.0696	0.606	0.00498	0.821	0.0709	-0.00756	-0.0682	0.0641
TTACACC	-0.111	-0.192	-0.0122	-1.55	-0.11	-0.314	-0.304	-0.196	-0.135	-0.0712
GCCCGAA	0.114	0.0716	0.363	0.747	0.0628	0.354	0.255	-0.103	0.0184	0.0759
CATTGGT	-2.07	-2.62	-0.734	-0.918	0.00384	-1.13	-3.31	-0.0916	0.0696	-0.0922
TAGTGTT	-3.38	-3.68	-3.76	-3.1	-3.7	-2.27	-4.2	-2.83	-0.157	-3
TCCACGA	-0.0251	-0.0675	0.0495	-0.243	-0.102	-0.648	-0.00775	-0.0579	-0.2	-0.0277
ATCTCAT	-0.064	-0.0519	-0.14	-0.479	-0.0363	-0.316	-0.731	-0.163	0.0533	0.0359
CGTTTCC	-0.136	-0.0266	0.125	-0.00348	-0.0812	-0.0934	-0.304	-0.131	-0.0561	-0.0499
TATTTCA	-3.15	-1.86	0.0516	-2.15	0.064	-0.431	-2.59	0.0402	0.164	0.0869
TGGGCAG	0.0335	0.07	0.857	1.83	0.0742	2.09	0.256	0.0886	-0.00293	0.165
CTCAATA	-0.0633	-0.000475	-0.198	-1.38	0.19	-0.647	-0.0394	0.0743	-0.0109	0.0199
CGGCTCG	-0.00701	0.184	-0.0546	0.171	0.0675	0.159	0.0981	0.115	-0.0377	0.144
GTTATAT	0.0589	0.115	0.345	0.944	0.0706	1.81	0.0853	0.159	0.109	0.147
CACCGAA	0.00923	0.039	-0.0873	-0.373	0.0656	-0.599	0.0811	0.0386	-0.143	-0.183
TTAGTAT	0.035	-0.014	0.274	-0.238	0.0753	0.419	0.0793	0.0703	0.0859	0.0431
CGGGTGT	0.0683	-0.0343	0.204	0.637	0.00253	1.31	0.0725	0.0712	0.0263	-0.112
ATTAAGG	0.162	0.112	0.348	1.32	0.0523	1.15	0.162	0.108	0.0244	0.0423
